# Results: the supplement of paper PMC8728848
# The other results are listed elsewhere or left out.
# B1: Gal 3C (Homo sapiens), P17931 (protein)
# chain: YGAPAGPLIVPYNLPLPGGVVPRMLITILGTVKPNANRIALDFQRGNDVAFHFNPRFNENNRRVIVCNTKLDNNWGREERQSVFPFESGKPFKIQVLVEPDHFKVAVNDAHLLQYNHRVKKLNEISKLGISGDIDLTSASYTMI
# Experiments:
# Test in all cases: glycan array binding signal (z-score within array); higher = stronger binding
# Settings in all cases: glycan notation: IUPAC condensed, linker removed
# [1] = target: GlcNAc(a1-6)Gal(b1-4)GlcNAc
# Procedure, shortened: (§1)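 Glycan array data came from 3228 arrays in the Consortium for Functional Glycomics database, and only arrays with an available protein sequence were kept. Glycan names were put into IUPAC-condensed notation, and columns mapping to the same glycan were averaged. The binding signal is a within-array Z-score, averaged across arrays of one protein sequence run at different concentrations or buffers and across linkers. A negative Z-score can be read as non-binding.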
# [2] = target: GlcNAc(b1-2)Gal(b1-3)GalNAc
# Procedure, shortened: as §1
# [3] = target: GlcNAc(b1-2)Man(a1-3)[GlcNAc(b1-2)Man(a1-6)]Man(b1-4)GlcNAc(b1-4)GlcNAc
# Procedure, shortened: as §1
# [4] = target: GlcNAc(b1-2)Man(a1-3)[GlcNAc(b1-2)Man(a1-6)]Man(b1-4)GlcNAc(b1-4)[Fuc(a1-6)]GlcNAc
# Procedure, shortened: as §1
# [5] = target: GlcNAc(b1-2)Man(a1-3)[GlcNAc(b1-4)][GlcNAc(b1-2)Man(a1-6)]Man(b1-4)GlcNAc(b1-4)GlcNAc
# Procedure, shortened: as §1
# [6] = target: GlcNAc(b1-2)Man(a1-3)[GlcNAc(b1-4)][GlcNAc(b1-2)Man(a1-6)]Man(b1-4)GlcNAc(b1-4)[Fuc(a1-6)]GlcNAc
# Procedure, shortened: as §1
# [7] = target: GlcNAc(b1-2)[GlcNAc(b1-4)]Man(a1-3)[GlcNAc(b1-2)Man(a1-6)]Man(b1-4)GlcNAc(b1-4)GlcNAc
# Procedure, shortened: as §1
# [8] = target: GlcNAc(b1-2)[GlcNAc(b1-4)]Man(a1-3)[GlcNAc(b1-4)][GlcNAc(b1-2)Man(a1-6)]Man(b1-4)GlcNAc(b1-4)GlcNAc
# Procedure, shortened: as §1
# [9] = target: GlcNAc(b1-2)[GlcNAc(b1-4)]Man(a1-3)[GlcNAc(b1-4)][GlcNAc(b1-2)[GlcNAc(b1-6)]Man(a1-6)]Man(b1-4)GlcNAc(b1-4)GlcNAc
# Procedure, shortened: as §1
# [10] = target: GlcNAc(b1-2)[GlcNAc(b1-4)]Man(a1-3)[GlcNAc(b1-4)][GlcNAc(b1-2)[GlcNAc(b1-6)]Man(a1-6)]Man(b1-4)GlcNAc(b1-4)[Fuc(a1-6)]GlcNAc
# Procedure, shortened: as §1
# [11] = target: GlcNAc(b1-2)[GlcNAc(b1-6)]Man(a1-6)[GlcNAc(b1-2)Man(a1-3)]Man(b1-4)GlcNAc(b1-4)GlcNAc
# Procedure, shortened: as §1
# [12] = target: GlcNAc(b1-2)[GlcNAc(b1-6)]Man(a1-6)[GlcNAc(b1-2)Man(a1-3)]Man(b1-4)GlcNAc(b1-4)[Fuc(a1-6)]GlcNAc
# Procedure, shortened: as §1
# [13] = target: GlcNAc(b1-2)[GlcNAc(b1-6)]Man(a1-6)[GlcNAc(b1-4)][GlcNAc(b1-2)Man(a1-3)]Man(b1-4)GlcNAc(b1-4)GlcNAc
# Procedure, shortened: as §1
# GlcNAc(b1-3)Fuc = target: GlcNAc(b1-3)Fuc
# Procedure, shortened: as §1
# GlcNAc(b1-3)Gal = target: GlcNAc(b1-3)Gal
# Procedure, shortened: as §1
# [14] = target: GlcNAc(b1-3)Gal(b1-3)GalNAc
# Procedure, shortened: as §1
# GlcNAc(b1-3)Gal(b1-4)Glc = target: GlcNAc(b1-3)Gal(b1-4)Glc
# Procedure, shortened: as §1
# [15] = target: GlcNAc(b1-3)Gal(b1-4)GlcNAc
# Procedure, shortened: as §1
# [16] = target: GlcNAc(b1-3)Gal(b1-4)GlcNAc(b1-2)Man(a1-3)[GlcNAc(b1-3)Gal(b1-4)GlcNAc(b1-2)Man(a1-6)]Man(b1-4)GlcNAc(b1-4)GlcNAc
# Procedure, shortened: as §1
# [17] = target: GlcNAc(b1-3)Gal(b1-4)GlcNAc(b1-2)Man(a1-3)[GlcNAc(b1-3)Gal(b1-4)GlcNAc(b1-2)Man(a1-6)]Man(b1-4)GlcNAc(b1-4)[Fuc(a1-6)]GlcNAc
# Procedure, shortened: as §1
# [18] = target: GlcNAc(b1-3)Gal(b1-4)GlcNAc(b1-2)[GlcNAc(b1-3)Gal(b1-4)GlcNAc(b1-6)]Man(a1-6)[GlcNAc(b1-3)Gal(b1-4)GlcNAc(b1-2)Man(a1-3)]Man(b1-4)GlcNAc(b1-4)GlcNAc
# Procedure, shortened: as §1
# [19] = target: GlcNAc(b1-3)Gal(b1-4)GlcNAc(b1-3)Gal(b1-4)GlcNAc
# Procedure, shortened: as §1
binder,measurement,setting,value
B1,glycan array binding signal (z-score),[1],-0.304
same,glycan array binding signal (z-score),[2],-0.232
same,glycan array binding signal (z-score),[3],-0.279
same,glycan array binding signal (z-score),[4],-0.196
same,glycan array binding signal (z-score),[5],-0.312
same,glycan array binding signal (z-score),[6],-0.313
same,glycan array binding signal (z-score),[7],-0.323
same,glycan array binding signal (z-score),[8],-0.294
same,glycan array binding signal (z-score),[9],-0.311
same,glycan array binding signal (z-score),[10],-0.344
same,glycan array binding signal (z-score),[11],-0.283
same,glycan array binding signal (z-score),[12],-0.222
same,glycan array binding signal (z-score),[13],-0.357
same,glycan array binding signal (z-score),GlcNAc(b1-3)Fuc,-0.194
same,glycan array binding signal (z-score),GlcNAc(b1-3)Gal,-0.261
same,glycan array binding signal (z-score),[14],-0.333
same,glycan array binding signal (z-score),GlcNAc(b1-3)Gal(b1-4)Glc,-0.318
same,glycan array binding signal (z-score),[15],-0.194
same,glycan array binding signal (z-score),[16],0.466
same,glycan array binding signal (z-score),[17],0.418
same,glycan array binding signal (z-score),[18],0.837
same,glycan array binding signal (z-score),[19],2.52
